Out of some 360,000 compounds screened, about 7,500 (2.1%) were called active. Inconclusive results, whose numbers are uncertain, are shown with a selection of clear calls. Calls come from the whole dose curve; as a rule, active = well fitted cell-killing curve with a large enough effect; inconclusive = small, poorly fitted or top-dose-only effect, or effect the other way, or another doubt; inactive = no such curve, though single readings can be large or run the other way. No potency is given beside an inconclusive call; the fits are too rough.
Test: qHTS for induction of synthetic lethality in tumor cells producing 2HG: qHTS for the HT-1080-IDH1KD cell line;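 for activity, negative = toxicity: 0% = DMSO wells and -100% = cell-free medium wells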
Conditions: HT-1080 IDH1 knockdown viability, ATP luminescence, 48 h; activity, negative = toxicity: at 46.1 µM (top of the series) unless noted
In short: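 After a 2 h attachment period, IDH1KD HT-1080 cells took pin-transferred compound for 48 h at 37 °C; ATP-based luminescence after 10 min room-temperature reagent incubation reported viability.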
For `CN=C1c2cc3c(Br)c(OC)ccc3n2CCN1C`, the Potency was inconclusive [cytotoxic, single point].
With `NC(=O)CCN(C1CCCCC1)S(=O)(=O)c1cccc2nsnc12` the “activity, negative = toxicity” value was inactive: -0.8%.
In the case of `O=C(CSCC(=O)NN=Cc1ccccc1O)NN=Cc1ccccc1O`, the Potency is reported as active: 20.6 µM.
With `Cc1ccc(NC(=O)Cc2csc(-c3ccccc3)n2)cc1F` the Potency was inconclusive [cytotoxic, single point].
With `Cc1ccc(-c2nnn(CC(=O)N(CC(=O)NC3CCCCC3)c3ccc(F)c(Cl)c3)n2)o1` the Potency was active: 18.4 µM.
With `Cc1cc(C)c2cccc(NC(=S)NC(=O)c3ccccc3)c2n1` the Potency was active: 2.82 µM.
In the case of `C/C(=N\Nc1nc2ccccc2[nH]1)c1ccc2c(c1)OCCO2`, the Potency is reported as inconclusive [cytotoxic, single point].
With `O=C(COC(=O)COc1cccc(C(F)(F)F)c1)Nc1ccc(N2CCOCC2)cc1` the “activity, negative = toxicity” value was inactive: 0%.
For `COc1ccc(CN2CCN(CC(O)Cn3c4ccccc4c4ccccc43)CC2)cc1` (configuration not stated), the Potency was inconclusive [cytotoxic, single point].
For `CC(Nc1nc(-c2cccnc2)nc2ccccc12)c1ccc(F)cc1` (configuration not stated), the Potency was inconclusive [cytotoxic, single point].
With `Cc1ccc(S(=O)(=O)n2[nH]c(=O)cc2N)cc1` the activity, negative = toxicity was inconclusive: -16.4% [cytotoxic].
In the case of `O=C1NC2(CCC3(CC2)OCCO3)NN1c1ccccc1`, the Potency is reported as active: 7.31 µM.
For `CC(C)c1cccc(C(C)C)c1Nc1cn[nH]c1`, the Potency was inconclusive [cytotoxic, single point].
In the case of `COC(=O)c1sc(N)c(C(=O)OC)c1COC(=O)c1c(C)noc1C`, the Potency is reported as active: 6.31 µM.
For `COc1cccc(C(=O)N2N=C(c3ccccc3)CC2(O)C(F)(F)F)c1` (configuration not stated), the “activity, negative = toxicity” value was inactive: 2.61%.
In the case of `C=CC1=CCN(S(=O)(=O)C(C)(C)C)[C@H]1CCO`, the “activity, negative = toxicity” value is reported as inactive: 10.7%.
In the case of `Cc1ccc(-c2nc3ccccn3c2NCc2ccc3c(c2)OCO3)cc1`, the Potency is reported as inconclusive [cytotoxic, single point].
In the case of `CCOC(=O)c1cc(-c2ccccc2)n(CC(=O)Nc2cccc(OC)c2)c1C`, the Potency is reported as inconclusive [cytotoxic, single point].
With `Oc1ccc(Br)cc1-c1cc(-c2ccccc2)n[nH]1` the Potency was active: 20.6 µM.
With `O=C(CC1CCCCC1)Nc1ccc(-c2ccc3nncn3n2)cc1` the Potency was inconclusive [cytotoxic, partial curve].
With `CN(C(=O)c1ccc(NC(=O)C2CCCN(C(=O)OC(C)(C)C)C2)cc1)C1CCCCC1` (configuration not stated) the “activity, negative = toxicity” value was inactive: -0.496%.
With `CCn1nccc1NC(=O)c1csc([C@@H]2O[C@H](CO)[C@H](O)[C@H](O)[C@H]2O)n1` the Potency was inconclusive [rising, single point].
With `CCCCNC(=O)C1(C)CCN1C(=O)c1ccc(C)c(F)c1` (configuration not stated) the Potency was inconclusive [rising, single point].
For `Cc1ccc2nc(-c3ccc(NC(=O)CN4C(=O)NC(C)(c5ccc(OC(F)F)cc5)C4=O)cc3)sc2c1` (configuration not stated), the Potency was inconclusive [cytotoxic, single point].
In the case of `CCOC(=O)/C=c1/s/c(=C/c2ccccc2OC)c(=O)n1CC(=O)N1CCOCC1`, the “activity, negative = toxicity” value is reported as inactive: 6.55%.
For `CCCCc1c(CCC)c(=N)c2ccccc2n1C`, the Potency was active: 20.6 µM.
For `COc1cccc(C(C)(O)c2nc(-c3ccccc3C)cs2)c1` (configuration not stated), the Potency was inconclusive [cytotoxic, single point].
For `CCn1nccc1C(=O)Nc1ccc(S(=O)(=O)NC23CC4CC(CC(C4)C2)C3)cc1`, the Potency was inconclusive [cytotoxic, single point].
With `CCN1CCN(c2ncc3c(n2)CC(c2ccc(OC)c(OC)c2)CC3=O)CC1` (configuration not stated) the Potency was active: 12.6 µM.
For `Cc1ccc(CSCCNC(=O)c2cccc([N+](=O)[O-])c2)cc1`, the “activity, negative = toxicity” value was inactive: -2.23%.
In the case of `CNC(=O)COC(=O)c1ccccc1C(=O)c1ccc(Cl)c([N+](=O)[O-])c1`, the Potency is reported as active: 23.1 µM.
In the case of `CCn1c(SCC(=O)Nc2ccc3c(c2)c2ccccc2n3CC)nnc1-c1cnccn1`, the Potency is reported as inconclusive [cytotoxic, single point].
In the case of `Cc1c(Br)c([N+](=O)[O-])nn1CCCC(=O)Nc1sc2c(c1C#N)CCC2`, the “activity, negative = toxicity” value is reported as inactive: -7.45%.
In the case of `Cc1cc2nc(C3CCN(Cc4nnnn4Cc4cccs4)CC3)[nH]c2cc1C`, the Potency is reported as active: 1.26 µM.
In the case of `Cc1cc(C)cc(Cn2c3ccc(NC(=O)NCCc4cccs4)cc3c(=O)n2C)c1`, the Potency is reported as inconclusive [cytotoxic, single point].
In the case of `COc1cc([N+](=O)[O-])ccc1NC(=S)Nc1cc(C(=O)OC(C)C)cc(C(=O)OC(C)C)c1`, the Potency is reported as inconclusive [cytotoxic, partial curve].
In the case of `Cc1cccc(CN2CCN(CC(=O)NCCCN3CCN(c4ccc(F)cc4)CC3)C2=O)c1`, the activity, negative = toxicity is reported as inconclusive: -32.4% [cytotoxic].
Potency is the fitted concentration of half-maximal effect; tags give direction and shape of the fitted curve.
